In the RNAGym collection of RNA variant scans (doi:10.1073/pnas.2313332121):
Variants at the floor of the assay are shown more often than the library holds them.

B1: TPR 5TU (parent)
chain: GGAUCUUCUCGAUCUAACAAAAAAGACAAAUCUGCCACAAAGCUUGAGAGCAUCUUCGGAUGCAGAGGCGGCAGCCUUCGGUGGCGCGAUAGCGCCAACGUUCUCAACUAUGACACGCAAAACGCGUGCUCCGUUGAAUGGAGUUUAUCAUG

Variants of: B1
Experiment: polymerase ribozyme fitness, log enrichment relative to wild type (log ratio); higher = more active; in vitro selection for triplet polymerase activity
Method in brief: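 One round of in vitro selection, in triplicate, was applied to PCR-built, transcribed mutant libraries of each subunit of a heterodimeric triplet polymerase ribozyme. The steps were annealing with a biotinylated primer, partner subunit and triplets, incubation frozen at −7 °C, gel excision of extended constructs, streptavidin-bead capture and RT-PCR. Fitness is the logarithm, base 2, of genotype enrichment over wild-type enrichment from inverse-variance-weighted replicate averages of Illumina-sequenced inputs and outputs, keeping genotypes with ≥10 input reads and ≥1 read per output.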

Row | Variant | polymerase ribozyme fitness (log ratio)
1 | A12G C54U U61A C72A C96U A98U C99A A142C | ≤ -4.2
2 | A12G C63A C69G U90A C103A | ≤ -4.2
3 | A12G C69G A89U C96G U104A | -2.98
4 | A12G C76A C114U G141U | ≤ -4.2
5 | A12G C79G G92A C105A A150U | ≤ -4.2
6 | A12G C93U | -1.21
7 | A12G C95U | 0.599
8 | A12G G58U C116U A150G | -1.58
9 | A12G G59A G94C | -0.564
10 | A12G G68C | ≤ -4.2
11 | A12G G74C | -3.9
12 | A12G G81A G92A C114A G152U | ≤ -4.2
13 | A12G G83U G92U A142G | -2.93
14 | A12G U13C A21U A47G G80U A119C U127A | ≤ -4.2
15 | A12G U31G C51A C57A C79A G92U C93U C105U U134C | ≤ -4.2
16 | A12G U45A A52U U55A C79G G81A A98G | ≤ -4.2
17 | A12G U45A G48U A52U C125G | ≤ -4.2
18 | A12G U56A C76A G143U | -3.46
19 | A12G U77C | -3.98
20 | A12U | -0.161
21 | A12U A16C A23G G46U A73U G80A C103G | ≤ -4.2

Row | Variant | polymerase ribozyme fitness (log ratio)
22 | A12U A16C A41C A47G A91C G92C | ≤ -4.2
23 | A12U A16U A40U U44A G46A A91C A97U A107U A115U U134A U146G | ≤ -4.2
24 | A12U A17C U55A U56C G86A A115G | ≤ -4.2
25 | A12U A19C U55A G83A G86A A89C C96A A113C U127C | ≤ -4.2
26 | A12U A19G C43A C85U C96U A115C | ≤ -4.2
27 | A12U A19G U82C G83A A119U | -4.07
28 | A12U A20C A23U A26U A40U C93A U127A | ≤ -4.2
29 | A12U A21G C75A C95U A138U G143U | ≤ -4.2
30 | A12U A21U A40G G58U G81A G94A C123G G140C | ≤ -4.2
31 | A12U A21U C38A A106U C116A A119G | -3.18
32 | A12U A22U A47G G48A A91U A97C A110C U144A C149G | ≤ -4.2
33 | A12U A22U U33G A41C G48C C85A G140A | ≤ -4.2
34 | A12U A22U U56A G74A U104A C131G U144G C149U | ≤ -4.2
35 | A12U A24C G74A C75A U101G A137U | ≤ -4.2
36 | A12U A24G C36A A64U G83A | ≤ -4.2
37 | A12U A24G C57A A115G A142G | ≤ -4.2
38 | A12U A24U G92A C103G A106C U139A | ≤ -4.2
39 | A12U A26C C36U | -3.95
40 | A12U A26U A30U A39U A49C U61A C87A | ≤ -4.2
41 | A12U A28G U31A U33A A64U G68A A150G | ≤ -4.2
42 | A12U A28U U82G C118U | ≤ -4.2

Row | Variant | polymerase ribozyme fitness (log ratio)
43 | A12U A30C A107C A138G U148G | ≤ -4.2
44 | A12U A39C G70C U78C G81U G83A A106G | ≤ -4.2
45 | A12U A40C C54U A60C A64G C85G C87A C96U C103A G136U | ≤ -4.2
46 | A12U A40G A41C C57A G133U A150C | ≤ -4.2
47 | A12U A40U C85U U145C | -1.21
48 | A12U A41C G46C G86U G128A C129G | ≤ -4.2
49 | A12U A41C G92A A142C | ≤ -4.2
50 | A12U A52C G84A A98G | -2.65
51 | A12U C14A A24U U56A C85U C99U G141A | ≤ -4.2
52 | A12U C14G A20G G46A G65C C85A | ≤ -4.2
53 | A12U C14G C32U C36G C63U G65A G86A C103G A106C | ≤ -4.2
54 | A12U C14U A37U A47C G92A C105A | ≤ -4.2
55 | A12U C14U G50C A60G G74U C85U | ≤ -4.2
56 | A12U C18G G42A U61G A73G G94C A137G | ≤ -4.2
57 | A12U C18U A19G U56G A60U C76G C108U C114G | ≤ -4.2
58 | A12U C35A C79U C96A A110G C118U C125A | ≤ -4.2
59 | A12U C35G C87A G141A | ≤ -4.2
60 | A12U C36A A66U C95G A120U | ≤ -4.2
61 | A12U C36A C72G C76A C93A G94U C114A C118A | ≤ -4.2
62 | A12U C36A U56A G59C C96A G112C C114U C116G C149U A150G | ≤ -4.2
63 | A12U C38G G50A A66C | ≤ -4.2

Row | Variant | polymerase ribozyme fitness (log ratio)
64 | A12U C54A A60C C63G G74U | ≤ -4.2
65 | A12U C76A C93U C108U A115U | ≤ -4.2
66 | A12U C85G | -1.91
67 | A12U C85U | -0.742
68 | A12U C85U A97G C116U | -1.53
69 | A12U C85U A106C A107U G124A U134A G140A | ≤ -4.2
70 | A12U C87A C103G U135G | ≤ -4.2
71 | A12U C93U G100U U111A | ≤ -4.2
72 | A12U C95A C96A C123U G140U | ≤ -4.2
73 | A12U C105G | -2.43
74 | A12U G25U A37G A47C U77A C95G G141A | ≤ -4.2
75 | A12U G34C C35G U77C G126U U144G | ≤ -4.2
76 | A12U G34C G58C U61A G80C G92A | ≤ -4.2
77 | A12U G46A C75U C87A C99U G117A | ≤ -4.2
78 | A12U G58C C87G U102G G141U | ≤ -4.2
79 | A12U G59C U61G G88C C103G G117U U135G | ≤ -4.2
80 | A12U G59U C69A C96U | -2.45
81 | A12U G83A U90C | ≤ -4.2
82 | A12U G84C | -2.67
83 | A12U G86A U101G | -0.714
